Results published in patent publication US20230136595A1 (Ablynx, published 2023).

Target: T1, human serum albumin (human, UniProt P02768)
T1 construct: also called HSA
Assay: direct binding ELISA on coated HSA; CEX top fraction depleted of the conformational variant; reference neither enriched nor depleted

- potency relative to a reference: 0.912 relative to reference
B1: Compound A (VHH)
chain: DVQLVESGGGVVQPGGSLRLSCAASGRTFSSIYAKGWFRQAPGKEREFVAAISRSGRSTSYADSVKGRFTISRDNSKNTVYLQMNSLRPEDTALYYCAAVGGATTVTASEWDYWGQGTLVTVSSGGGGSGGGSEVQLVESGGGVVQPGGSLRLSCAASGRTFSSIYAKGWFRQAPGKEREFVAAISRSGRSTSYADSVKGRFTISRDNSKNTVYLQMNSLRPEDTALYYCAAVGGATTVTASEWDYWGQGTLVTVSSGGGGSGGGS[about 120 residues not written out]GGGGSGGGSEVQLVESGGGVVQPGGSLRLSCAASGFTFRSFGMSWVRQAPGKGPEWVSSISGSGSDTLYADSVKGRFTISRDNSKNTLYLQMNSLRPEDTALYYCTIGGSLSRSSQGTLVTVSSGGGGSGGGSEVQLVESGGGVVQPGGSLRLS[about 80 residues not written out]RGQGTLVKVSSA
notes: Pentavalent, trispecific ISVD construct in one chain: OX40L ISVD-9GS-OX40L ISVD-9GS-TNFa ISVD-9GS-HSA ISVD-9GS-TNFa ISVD; Tested as CEX fractions enriched in or depleted of a compact conformational variant; The sample is named in the label and assay of each row; also called F02730252
